Results from PMC6078952.
Results are given in words; binding and its absence hold for the method and conditions named.

Chains of the proteins cited; added tags and fusions are not shown. Lines headed by an entry give the natural chain unless they say otherwise; changes in a name come on top. A line that says so, or that is headed by a name, gives the form on record, which may keep a tag or linker. Residues count along the entry.
UniProt P35968, residues 20-764: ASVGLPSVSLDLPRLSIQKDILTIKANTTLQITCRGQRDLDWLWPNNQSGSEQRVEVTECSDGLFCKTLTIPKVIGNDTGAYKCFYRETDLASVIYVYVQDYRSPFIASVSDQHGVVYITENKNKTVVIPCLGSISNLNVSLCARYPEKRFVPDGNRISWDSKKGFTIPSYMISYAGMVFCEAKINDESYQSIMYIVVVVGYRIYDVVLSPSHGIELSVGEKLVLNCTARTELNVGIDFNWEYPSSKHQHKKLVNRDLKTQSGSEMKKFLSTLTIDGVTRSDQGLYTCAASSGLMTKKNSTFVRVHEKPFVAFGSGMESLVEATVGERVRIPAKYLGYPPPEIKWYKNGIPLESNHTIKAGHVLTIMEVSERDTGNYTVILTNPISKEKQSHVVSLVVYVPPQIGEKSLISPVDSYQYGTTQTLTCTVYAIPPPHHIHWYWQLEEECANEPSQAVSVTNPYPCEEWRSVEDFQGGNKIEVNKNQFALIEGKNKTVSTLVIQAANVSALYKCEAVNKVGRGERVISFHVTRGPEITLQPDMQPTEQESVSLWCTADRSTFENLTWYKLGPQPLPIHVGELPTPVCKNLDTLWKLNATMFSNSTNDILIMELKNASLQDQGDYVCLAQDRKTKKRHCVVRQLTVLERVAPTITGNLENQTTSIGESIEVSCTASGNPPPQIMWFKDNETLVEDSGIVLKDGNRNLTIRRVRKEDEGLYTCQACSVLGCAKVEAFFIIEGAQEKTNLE
UniProt P13608, residues 17-2364: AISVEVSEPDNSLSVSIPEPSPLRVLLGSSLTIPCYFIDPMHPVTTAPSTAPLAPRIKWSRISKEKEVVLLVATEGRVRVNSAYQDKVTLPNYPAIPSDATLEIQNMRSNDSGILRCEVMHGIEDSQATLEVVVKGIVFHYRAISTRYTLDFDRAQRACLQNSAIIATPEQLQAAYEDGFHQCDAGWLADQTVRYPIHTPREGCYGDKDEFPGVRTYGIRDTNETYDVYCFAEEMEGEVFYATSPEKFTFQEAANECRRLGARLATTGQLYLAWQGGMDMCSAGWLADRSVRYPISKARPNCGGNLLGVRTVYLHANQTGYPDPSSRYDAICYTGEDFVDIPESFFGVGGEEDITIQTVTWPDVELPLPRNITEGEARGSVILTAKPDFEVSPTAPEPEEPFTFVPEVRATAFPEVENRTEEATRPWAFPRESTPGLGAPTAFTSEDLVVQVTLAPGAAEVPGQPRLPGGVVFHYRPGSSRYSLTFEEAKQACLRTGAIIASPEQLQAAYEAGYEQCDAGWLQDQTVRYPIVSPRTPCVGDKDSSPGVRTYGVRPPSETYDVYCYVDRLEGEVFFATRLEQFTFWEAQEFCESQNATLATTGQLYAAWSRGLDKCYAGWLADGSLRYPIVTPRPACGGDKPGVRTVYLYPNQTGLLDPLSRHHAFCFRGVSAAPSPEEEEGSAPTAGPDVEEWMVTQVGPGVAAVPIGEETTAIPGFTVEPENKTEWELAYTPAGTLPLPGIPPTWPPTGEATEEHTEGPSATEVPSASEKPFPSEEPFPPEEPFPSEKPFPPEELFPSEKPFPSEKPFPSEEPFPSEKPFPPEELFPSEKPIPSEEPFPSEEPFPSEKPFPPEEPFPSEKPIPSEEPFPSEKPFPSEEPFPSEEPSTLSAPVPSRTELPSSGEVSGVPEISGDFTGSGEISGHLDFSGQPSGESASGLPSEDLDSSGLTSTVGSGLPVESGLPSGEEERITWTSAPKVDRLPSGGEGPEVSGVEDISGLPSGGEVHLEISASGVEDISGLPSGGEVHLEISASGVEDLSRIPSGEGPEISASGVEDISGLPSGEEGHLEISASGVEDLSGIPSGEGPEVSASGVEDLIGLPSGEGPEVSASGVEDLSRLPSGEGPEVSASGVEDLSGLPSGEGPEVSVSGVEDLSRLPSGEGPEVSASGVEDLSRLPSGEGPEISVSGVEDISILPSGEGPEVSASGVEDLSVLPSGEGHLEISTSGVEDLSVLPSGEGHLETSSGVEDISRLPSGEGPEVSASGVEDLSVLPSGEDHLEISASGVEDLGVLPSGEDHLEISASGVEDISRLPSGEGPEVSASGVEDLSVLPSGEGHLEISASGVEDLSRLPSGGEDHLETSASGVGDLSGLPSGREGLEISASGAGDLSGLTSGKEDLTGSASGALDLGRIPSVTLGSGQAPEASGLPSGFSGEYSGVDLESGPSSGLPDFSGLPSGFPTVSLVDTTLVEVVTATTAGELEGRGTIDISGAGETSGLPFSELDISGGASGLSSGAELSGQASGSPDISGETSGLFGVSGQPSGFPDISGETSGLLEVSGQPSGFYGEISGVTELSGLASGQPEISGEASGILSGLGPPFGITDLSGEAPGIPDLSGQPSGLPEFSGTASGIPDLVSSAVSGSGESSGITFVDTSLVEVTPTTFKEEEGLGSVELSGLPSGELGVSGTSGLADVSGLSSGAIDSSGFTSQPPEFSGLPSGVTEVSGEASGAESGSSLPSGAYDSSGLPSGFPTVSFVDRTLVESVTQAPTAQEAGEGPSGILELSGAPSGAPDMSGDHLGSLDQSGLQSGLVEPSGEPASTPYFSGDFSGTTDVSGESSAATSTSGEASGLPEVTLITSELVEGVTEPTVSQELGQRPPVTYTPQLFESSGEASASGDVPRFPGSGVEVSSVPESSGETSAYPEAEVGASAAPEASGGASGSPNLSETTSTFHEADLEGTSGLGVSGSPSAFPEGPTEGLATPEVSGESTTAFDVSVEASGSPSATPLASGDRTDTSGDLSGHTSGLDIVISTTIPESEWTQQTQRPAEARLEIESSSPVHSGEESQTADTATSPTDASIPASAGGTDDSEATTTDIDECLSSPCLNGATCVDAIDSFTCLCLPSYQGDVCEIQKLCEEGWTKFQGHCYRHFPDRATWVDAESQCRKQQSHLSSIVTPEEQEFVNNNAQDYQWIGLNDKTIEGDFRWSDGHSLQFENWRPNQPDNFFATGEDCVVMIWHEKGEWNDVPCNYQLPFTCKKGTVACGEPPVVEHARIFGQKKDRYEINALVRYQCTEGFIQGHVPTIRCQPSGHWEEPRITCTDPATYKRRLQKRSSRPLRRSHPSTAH
UniProt O75056, residues 48-383: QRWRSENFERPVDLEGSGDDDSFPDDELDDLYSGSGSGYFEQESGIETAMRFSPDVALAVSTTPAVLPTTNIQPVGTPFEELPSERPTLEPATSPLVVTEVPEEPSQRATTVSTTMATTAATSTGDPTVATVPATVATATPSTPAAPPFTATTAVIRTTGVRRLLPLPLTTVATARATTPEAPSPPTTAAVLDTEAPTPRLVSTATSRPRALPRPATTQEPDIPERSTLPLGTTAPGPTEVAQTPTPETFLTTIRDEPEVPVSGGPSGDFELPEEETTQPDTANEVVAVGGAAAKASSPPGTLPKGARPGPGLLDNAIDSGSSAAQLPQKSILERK
UniProt P10451, residues 17-314: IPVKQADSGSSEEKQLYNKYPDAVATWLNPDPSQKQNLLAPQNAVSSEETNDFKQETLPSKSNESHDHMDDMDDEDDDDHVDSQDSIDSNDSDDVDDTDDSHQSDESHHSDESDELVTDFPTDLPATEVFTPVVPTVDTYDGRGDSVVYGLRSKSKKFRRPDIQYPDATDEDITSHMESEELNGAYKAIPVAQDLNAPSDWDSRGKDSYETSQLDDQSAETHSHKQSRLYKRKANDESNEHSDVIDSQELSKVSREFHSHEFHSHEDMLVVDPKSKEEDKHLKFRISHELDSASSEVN
UniProt Q9UMD9, residues 490-1497: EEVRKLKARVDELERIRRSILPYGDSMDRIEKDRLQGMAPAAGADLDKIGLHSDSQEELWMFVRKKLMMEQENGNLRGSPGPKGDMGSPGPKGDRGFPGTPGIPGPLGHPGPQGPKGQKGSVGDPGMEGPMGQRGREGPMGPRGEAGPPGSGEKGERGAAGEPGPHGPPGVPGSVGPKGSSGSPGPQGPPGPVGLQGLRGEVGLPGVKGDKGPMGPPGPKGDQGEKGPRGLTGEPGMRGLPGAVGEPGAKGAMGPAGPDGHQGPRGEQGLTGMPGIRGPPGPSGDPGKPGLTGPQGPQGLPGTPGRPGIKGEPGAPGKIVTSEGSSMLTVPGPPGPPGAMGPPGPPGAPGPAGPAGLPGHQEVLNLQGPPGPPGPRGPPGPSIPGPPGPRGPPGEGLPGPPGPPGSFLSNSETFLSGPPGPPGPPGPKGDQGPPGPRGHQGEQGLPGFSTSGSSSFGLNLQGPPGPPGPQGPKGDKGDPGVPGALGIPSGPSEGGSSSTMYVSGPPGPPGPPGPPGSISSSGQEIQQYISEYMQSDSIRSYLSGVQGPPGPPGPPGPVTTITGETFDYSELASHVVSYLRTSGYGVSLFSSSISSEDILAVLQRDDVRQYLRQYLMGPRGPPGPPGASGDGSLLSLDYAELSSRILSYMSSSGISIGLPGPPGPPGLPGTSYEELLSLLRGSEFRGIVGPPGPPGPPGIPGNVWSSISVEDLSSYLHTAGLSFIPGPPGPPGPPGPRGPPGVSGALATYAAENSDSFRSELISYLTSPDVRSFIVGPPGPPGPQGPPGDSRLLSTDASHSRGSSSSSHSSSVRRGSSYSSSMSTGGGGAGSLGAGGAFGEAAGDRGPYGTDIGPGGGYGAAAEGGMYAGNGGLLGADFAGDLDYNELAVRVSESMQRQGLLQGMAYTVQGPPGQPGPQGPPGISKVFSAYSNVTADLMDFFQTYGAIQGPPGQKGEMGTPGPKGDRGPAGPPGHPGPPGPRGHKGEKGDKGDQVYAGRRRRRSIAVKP
UniProt Q96GW7, residues 23-911: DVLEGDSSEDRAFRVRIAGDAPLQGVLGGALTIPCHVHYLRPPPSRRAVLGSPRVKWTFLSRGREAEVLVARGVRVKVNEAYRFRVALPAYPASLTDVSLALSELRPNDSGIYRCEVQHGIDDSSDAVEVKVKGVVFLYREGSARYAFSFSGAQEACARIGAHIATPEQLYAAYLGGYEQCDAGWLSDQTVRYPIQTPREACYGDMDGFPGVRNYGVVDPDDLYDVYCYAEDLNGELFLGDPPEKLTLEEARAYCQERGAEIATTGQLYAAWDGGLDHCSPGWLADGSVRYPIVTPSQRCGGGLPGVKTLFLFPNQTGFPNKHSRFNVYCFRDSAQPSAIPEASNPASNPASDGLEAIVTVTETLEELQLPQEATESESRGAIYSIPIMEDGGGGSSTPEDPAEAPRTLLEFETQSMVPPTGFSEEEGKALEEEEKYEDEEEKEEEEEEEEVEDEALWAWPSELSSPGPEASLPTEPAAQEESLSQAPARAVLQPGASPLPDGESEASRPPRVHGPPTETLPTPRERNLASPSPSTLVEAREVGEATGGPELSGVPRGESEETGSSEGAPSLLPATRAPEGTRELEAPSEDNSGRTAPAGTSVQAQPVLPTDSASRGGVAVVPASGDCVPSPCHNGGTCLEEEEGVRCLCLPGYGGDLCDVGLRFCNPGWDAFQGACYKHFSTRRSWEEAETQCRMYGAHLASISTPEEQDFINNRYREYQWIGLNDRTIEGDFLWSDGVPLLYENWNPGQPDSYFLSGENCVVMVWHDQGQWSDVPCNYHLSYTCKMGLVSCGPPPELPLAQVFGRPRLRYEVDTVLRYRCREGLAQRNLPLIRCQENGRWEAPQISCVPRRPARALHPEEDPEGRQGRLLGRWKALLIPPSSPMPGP
Lysyl oxidase propeptide (LOX-PP) (Pro24Leu) (P28300, form named): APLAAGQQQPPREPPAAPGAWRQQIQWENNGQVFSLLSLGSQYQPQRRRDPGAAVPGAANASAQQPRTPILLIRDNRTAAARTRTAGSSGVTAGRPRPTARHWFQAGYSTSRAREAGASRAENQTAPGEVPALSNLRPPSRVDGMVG

Columns and labels:
Assay in all cases: SPR; SPR imaging (SPRi, Biacore Flexchip): partners spotted in triplicate on a bare gold chip at 0.06 to 1 mg/ml; purified LOX-PP injected at 2 µM and recirculated for 20 min; PBS with 0.05% Tween 20, 25 °C; both purified
[1] = biological target: Vascular endothelial growth factor receptor-2 (VEGFR-2) (UniProt P35968)
Aggrecan = Aggrecan (UniProt P13608)
Syndecan-3 ectodomain = Syndecan-3 ectodomain (UniProt O75056)
[2] = biological target: Osteopontin (with bovine serum albumin) (UniProt P10451)
Osteonectin (SPARC) = biological target: T1, Osteonectin (SPARC) (UniProt P09486)
T1 sequence: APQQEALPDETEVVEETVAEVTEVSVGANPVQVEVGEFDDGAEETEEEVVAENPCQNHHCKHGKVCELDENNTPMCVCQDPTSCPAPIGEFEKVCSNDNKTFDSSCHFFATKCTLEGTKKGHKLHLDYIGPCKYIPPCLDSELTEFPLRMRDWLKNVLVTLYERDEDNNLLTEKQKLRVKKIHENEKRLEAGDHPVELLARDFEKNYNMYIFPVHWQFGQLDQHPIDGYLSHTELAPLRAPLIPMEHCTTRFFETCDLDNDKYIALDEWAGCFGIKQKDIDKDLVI

Collagen XVII ectodomain = Collagen XVII ectodomain (UniProt Q9UMD9)
Neuroglycan C = biological target: T2, Neuroglycan C (UniProt O95196)
T2 sequence: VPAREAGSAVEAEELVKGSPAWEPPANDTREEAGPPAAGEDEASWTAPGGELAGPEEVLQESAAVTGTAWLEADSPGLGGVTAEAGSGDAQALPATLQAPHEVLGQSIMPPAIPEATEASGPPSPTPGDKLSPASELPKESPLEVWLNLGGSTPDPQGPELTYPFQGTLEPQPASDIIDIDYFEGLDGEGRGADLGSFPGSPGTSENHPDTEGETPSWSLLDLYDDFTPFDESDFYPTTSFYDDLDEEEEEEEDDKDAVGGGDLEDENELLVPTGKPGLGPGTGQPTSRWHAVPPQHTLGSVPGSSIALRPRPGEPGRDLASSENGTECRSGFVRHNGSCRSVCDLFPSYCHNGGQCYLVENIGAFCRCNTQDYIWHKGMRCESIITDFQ

Hyaluronidase-1 = biological target: T3, Hyaluronidase-1 (UniProt Q12794)
T3 sequence: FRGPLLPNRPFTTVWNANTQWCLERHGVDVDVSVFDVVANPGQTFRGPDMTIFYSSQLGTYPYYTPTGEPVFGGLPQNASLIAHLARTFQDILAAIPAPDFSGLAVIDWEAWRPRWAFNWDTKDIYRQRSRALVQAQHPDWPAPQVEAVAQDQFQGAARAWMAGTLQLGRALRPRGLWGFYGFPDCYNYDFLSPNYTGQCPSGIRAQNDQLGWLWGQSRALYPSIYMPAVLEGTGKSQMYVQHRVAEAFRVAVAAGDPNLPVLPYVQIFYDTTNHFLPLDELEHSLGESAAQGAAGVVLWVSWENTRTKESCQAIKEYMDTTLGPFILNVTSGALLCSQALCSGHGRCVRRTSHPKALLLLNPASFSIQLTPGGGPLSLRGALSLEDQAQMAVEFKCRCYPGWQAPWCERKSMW

Brevican = Brevican (UniProt Q96GW7)
Biglycan = biological target: T4, Biglycan (UniProt P21809)
T4 sequence: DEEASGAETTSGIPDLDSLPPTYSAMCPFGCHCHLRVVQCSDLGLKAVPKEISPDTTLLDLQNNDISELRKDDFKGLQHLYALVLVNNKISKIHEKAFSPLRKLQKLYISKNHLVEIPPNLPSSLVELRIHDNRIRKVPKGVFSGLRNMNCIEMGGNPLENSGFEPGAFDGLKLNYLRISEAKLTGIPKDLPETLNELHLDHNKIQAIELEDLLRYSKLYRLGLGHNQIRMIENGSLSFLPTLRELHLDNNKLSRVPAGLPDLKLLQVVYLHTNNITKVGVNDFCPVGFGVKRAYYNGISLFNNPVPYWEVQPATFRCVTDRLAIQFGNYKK

[3] = biological target: Epidermal growth factor receptor (EGFR) (UniProt P00533)

Measured: binding

Lysyl oxidase propeptide (LOX-PP) (Pro24Leu) (from UniProt P28300 22-168) (domain or fragment)
no binding (tested: 2 µM): [1] | Aggrecan | Syndecan-3 ectodomain | [2] | Osteonectin (SPARC) | Collagen XVII ectodomain | Neuroglycan C | Hyaluronidase-1 | Brevican | Biglycan | [3]
